{
  "source": "the supplement of paper PMC11417369",
  "note": "± gives the standard deviation of the averaged measurements. The list shows a part of the results.",
  "data": [
    {"tested_on": "PfAP2-I AP2 domain 3 (GST-tagged)", "experiment": "gcPBM binding intensity (ln(normalized median fluorescence intensity)); higher = stronger DNA binding", "summary_of_the_method": "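Binding intensity is defined as the maximum Masliner-normalised natural-log median intensity across replicate spots for either probe orientation. It was measured on an Agilent 4 × 180k array of primer-extended double-stranded 36-bp intergenic genomic probes and negative controls, to which GST-tagged P. falciparum DNA-binding domains made in E. coli were applied for 1 h in 1× PBS with 1% milk, 0.2 mg/ml BSA, 0.5% salmon testes DNA and 0.03% Triton X-100. Detection was by Alexa488 anti-GST antibody and scanning at 488 nm.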", "values": [
      {"sequence": "GAAAAAAAAAAAAAAAAACACACGGTACATTCAAAG [CACACA_site303]", "gcPBM binding intensity (ln)": "7.63 ± 0.79"},
      {"sequence": "AAAAATATAATATAATGTACACAAAAAAAAAAAATC [XGTACX_site1427]", "gcPBM binding intensity (ln)": "7.93 ± 0.52"},
      {"sequence": "TATGAAGACACAAATACACACACTCAAAAAAAAAAA [CACACA_site2660]", "gcPBM binding intensity (ln)": "8.05 ± 0.78"},
      {"sequence": "TTTATTTATAGAATTACACACATATATACACAAATG [CACACA_site7338]", "gcPBM binding intensity (ln)": "7.99 ± 0.43"},
      {"sequence": "TTTATTTTTAAAGGCACACACATTTTTATTTTTAAA [CACACA_site2021]", "gcPBM binding intensity (ln)": "8.715 ± 0.021"},
      {"sequence": "TTCTTTTTTTTCAGTTGTACTTATAAGAAAGAAAAA [XGTACX_site4028]", "gcPBM binding intensity (ln)": "7.84 ± 0.16"},
      {"sequence": "AATATAAATATAGGAAATGTAGTTAAAAGGTGTATG [CACACA_negctrl_site1233]", "gcPBM binding intensity (ln)": "7.71 ± 0.74"},
      {"sequence": "ATATATATAACAAAAGTGCATTAAGGGGATGCTATA", "gcPBM binding intensity (ln)": "11.5 ± 0.26"},
      {"sequence": "TTATTATAAATAGGTAGTACATTTTGAACAAATATT [XGTACX_site8866]", "gcPBM binding intensity (ln)": "7.77 ± 0.34"},
      {"sequence": "TATGCAAGGAACCACACACACACACGGAAATGTATA [CACACA_site6490]", "gcPBM binding intensity (ln)": "8.07 ± 0.73"},
      {"sequence": "AATTATGGGGAAAAGACACACATATATATATATATA [CACACA_site2589]", "gcPBM binding intensity (ln)": "9.43 ± 0.38"},
      {"sequence": "ATACGACAAATATAAAGTACAAGCTTGGTTTTTATA [XGTACX_site8103]", "gcPBM binding intensity (ln)": "7.62 ± 0.43"},
      {"sequence": "ATTCTATAGAAACACACACACATGCATGCACCTATA [CACACA_site107]", "gcPBM binding intensity (ln)": "9.28 ± 0.29"},
      {"sequence": "TTATATATATATGTATGTACTTATAACTTTTATTAG [XGTACX_site3190]", "gcPBM binding intensity (ln)": "7.66 ± 0.59"},
      {"sequence": "ATAAGGTTACAACAAACACACAAAGGAATATACGCA [CACACA_site4090]", "gcPBM binding intensity (ln)": "7.91 ± 0.91"},
      {"sequence": "AAGAAGAATAGGCGTTGTACGGAATGTAGTAGAGTT [XGTACX_site2430]", "gcPBM binding intensity (ln)": "8.4 ± 0.91"},
      {"sequence": "TTAATATAAATATGATTTTTGATTCCTATACTATTT [CACACA_negctrl_site752]", "gcPBM binding intensity (ln)": "7.38 ± 0.52"},
      {"sequence": "TTGTATTCATATGGTTGTACATATTAAAAGTTCTAA [XGTACX_site7255]", "gcPBM binding intensity (ln)": "7.73 ± 0.31"},
      {"sequence": "ATAAATTTACTTGATTGTACATTTCTTAGTTGTATT [XGTACX_site3057]", "gcPBM binding intensity (ln)": "7.61 ± 0.54"},
      {"sequence": "CACAAGAAAGTTCACACACACACATATATATATATA [CACACA_site6009]", "gcPBM binding intensity (ln)": "9.68 ± 0.48"},
      {"sequence": "TATACTGATAAAAAAAGTACTAGAGTTTGTAAAAAT [XGTACX_site3934]", "gcPBM binding intensity (ln)": "7.93 ± 0.72"},
      {"sequence": "AATTTTAATTTTTTGACACACATATAATATATATAT [CACACA_site3978]", "gcPBM binding intensity (ln)": "8.85 ± 0.11"},
      {"sequence": "TTATATGTCAATTTGCGTACATACATAATTACATAT [XGTACX_site1546]", "gcPBM binding intensity (ln)": "8.11 ± 0.12"},
      {"sequence": "TATGGGTATGTATTCACACATAACAAAAATATCAAA [CACACA_site5059]", "gcPBM binding intensity (ln)": "7.79 ± 0.67"},
      {"sequence": "ATATATATATATAACACACGCAAAAAAATTAAATAA [CACACA_site1400]", "gcPBM binding intensity (ln)": "9.31 ± 0.22"},
      {"sequence": "CAAAGACACAAACACACACACACATACATACATACA [CACACA_site453]", "gcPBM binding intensity (ln)": "8.85 ± 0.59"},
      {"sequence": "TTTTATATATTCAATTGTACATGTATTTTTTTTTTT [XGTACX_site3584]", "gcPBM binding intensity (ln)": "7.76 ± 0.46"},
      {"sequence": "TATGCATTTATGCATTGTACTTTTATAGATTCCACC [XGTACX_site7121]", "gcPBM binding intensity (ln)": "7.84 ± 0.19"},
      {"sequence": "AACAATATGGATGTATGTACACATATAGAACGTTAT [XGTACX_site7142]", "gcPBM binding intensity (ln)": "7.91 ± 0.72"},
      {"sequence": "TATGTATATATATTAACACACAAAAAAAAAAAAAAA [CACACA_site1812]", "gcPBM binding intensity (ln)": "7.95 ± 0.62"},
      {"sequence": "ATGAACGGAAAAATATATATAAATATATATATCATG [XGTACX_negctrl_site342]", "gcPBM binding intensity (ln)": "7.61 ± 0.33"},
      {"sequence": "TTAAACTATACCAAAACACACATACAAAATATAAAA [CACACA_site5494]", "gcPBM binding intensity (ln)": "7.84 ± 0.6"},
      {"sequence": "GAAATTTTATTACTTTTACACACCTATATATTATTC [CACACA_site9076]", "gcPBM binding intensity (ln)": "7.79 ± 0.76"},
      {"sequence": "ATATTATATATACACGCACACACACTAATATATATA [CACACA_site9092]", "gcPBM binding intensity (ln)": "8.55 ± 0.59"},
      {"sequence": "TACAAAAAAAAAGAACGTACAAAAAATTTCAAAAAT [XGTACX_site5860]", "gcPBM binding intensity (ln)": "7.96 ± 0.49"},
      {"sequence": "TAAAATAACTCACAAAGTACAAAAATAAGCATATGA [XGTACX_site7046]", "gcPBM binding intensity (ln)": "7.76 ± 0.69"},
      {"sequence": "TACATGATAGATCACACACACATATAAATATATATA [CACACA_site5562]", "gcPBM binding intensity (ln)": "7.93 ± 0.64"},
      {"sequence": "ACATAAGACACAAATACACACAAAAATATATAACAA [CACACA_site4082]", "gcPBM binding intensity (ln)": "8.12 ± 0.28"},
      {"sequence": "AAAATATATTAAGGCACACACATACAGATATATATA [CACACA_site5951]", "gcPBM binding intensity (ln)": "10 ± 0.48"},
      {"sequence": "TACGTGAAATTATATACACACATAAATATGGGTGTA [CACACA_site5687]", "gcPBM binding intensity (ln)": "7.39 ± 0.28"},
      {"sequence": "TACATACACAAATACACACACAAATACATACCCAAA [CACACA_site4550]", "gcPBM binding intensity (ln)": "8.05 ± 0.38"},
      {"sequence": "TTTTTTCTTTTTTTTTTTTTTTTCTTTTTTTTTTTT [GTGCAC_negctrl_site196]", "gcPBM binding intensity (ln)": "7.94 ± 0.48"},
      {"sequence": "GGTATACTCAAGTATACACACATATATATATATATA [CACACA_site5746]", "gcPBM binding intensity (ln)": "9.5 ± 0.58"},
      {"sequence": "AAGAAAATGTATATATGTACATACAATCAAAAGAAG [XGTACX_site3454]", "gcPBM binding intensity (ln)": "8.14 ± 0.38"}
    ]}
  ]
}
